# Measurements as given in the supplement of paper PMC4604168 (melanoma cell lines).
# Some of the results follow. Most values come without repeats; read them as rough.
# Tested on: C32
# Test: cell count relative to DMSO control; melanoma cells; higher = more viable cells
# Settings: library dose: low library concentration; 72 h
# 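Also: cell number obtained by counting DAPI-stained nuclei in high-throughput microscope images with image analysis software, screen run in 1,536-well plates.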
row,Structure (SMILES),cell count [%]
1,"O=C(/C=C/c1cccnc1)NCCCCC1CCN(C(=O)c2ccccc2)CC1 + O=C(O)[C@@H]1[O][Sb](=[O])([O][Sb]2(=[O])[O][C@H]([C@H](O)CO)[C@H](O)[C@H](C(=O)O)[O]2)[O][C@H]([C@H](O)CO)[C@@H]1O [stibogluconate] (first compound 0.01 µM, partner dose 2 µM)",103
2,"Cc1ccc(Nc2nccc(N(C)c3ccc4c(C)n(C)nc4c3)n2)cc1S(N)(=O)=O [Pazopanib] + OCCn1cc(-c2cnc3nnn(Cc4ccc5ncccc5c4)c3n2)cn1 [PF04217903] (first compound 0.4 µM, partner dose 1 µM)",116
3,"Cc1ccc(Nc2nccc(N(C)c3ccc4c(C)n(C)nc4c3)n2)cc1S(N)(=O)=O [Pazopanib] + NCC(=O)Nc1ccc(-n2nc(C(F)(F)F)cc2-c2ccc3c(ccc4ccccc43)c2)cc1 [OSU03012] (first compound 0.4 µM, partner dose 1 µM)",109
4,"CC1(C)CCC(c2ccc(Cl)cc2)=C(CN2CCN(c3ccc(C(=O)NS(=O)(=O)c4ccc(N[C@H](CCN5CCOCC5)CSc5ccccc5)c(S(=O)(=O)C(F)(F)F)c4)cc3)CC2)C1 + OCc1c[nH]c2ccccc12 [Indole-3-carbinol] (first compound 0.4 µM, partner dose 0.8 µM)",25.6
5,"O=C(/C=C/c1cccnc1)NCCCCC1CCN(C(=O)c2ccccc2)CC1 + C[C@@H](N)c1ccc(C(=O)Nc2ccnc3[nH]ccc23)cc1 [RKI983] (first compound 0.01 µM, partner dose 0.4 µM)",80.7
